Data: article PMC4336329 (PLoS ONE, 2015)
The campaign covered roughly 310,000 compounds. About 2,200 (0.71%) showed an effect of 50% or more. Effects have a minus sign here. This is one part of the list.

Each compound was assayed against human ether-à-go-go-related gene (hERG) potassium channel (human, UniProt Q12809) (assay: primary screen, population patch clamp on CHO cells stably expressing hERG).
human ether-à-go-go-related gene (hERG) potassium channel, sequence (Q12809 whole entry, looked up): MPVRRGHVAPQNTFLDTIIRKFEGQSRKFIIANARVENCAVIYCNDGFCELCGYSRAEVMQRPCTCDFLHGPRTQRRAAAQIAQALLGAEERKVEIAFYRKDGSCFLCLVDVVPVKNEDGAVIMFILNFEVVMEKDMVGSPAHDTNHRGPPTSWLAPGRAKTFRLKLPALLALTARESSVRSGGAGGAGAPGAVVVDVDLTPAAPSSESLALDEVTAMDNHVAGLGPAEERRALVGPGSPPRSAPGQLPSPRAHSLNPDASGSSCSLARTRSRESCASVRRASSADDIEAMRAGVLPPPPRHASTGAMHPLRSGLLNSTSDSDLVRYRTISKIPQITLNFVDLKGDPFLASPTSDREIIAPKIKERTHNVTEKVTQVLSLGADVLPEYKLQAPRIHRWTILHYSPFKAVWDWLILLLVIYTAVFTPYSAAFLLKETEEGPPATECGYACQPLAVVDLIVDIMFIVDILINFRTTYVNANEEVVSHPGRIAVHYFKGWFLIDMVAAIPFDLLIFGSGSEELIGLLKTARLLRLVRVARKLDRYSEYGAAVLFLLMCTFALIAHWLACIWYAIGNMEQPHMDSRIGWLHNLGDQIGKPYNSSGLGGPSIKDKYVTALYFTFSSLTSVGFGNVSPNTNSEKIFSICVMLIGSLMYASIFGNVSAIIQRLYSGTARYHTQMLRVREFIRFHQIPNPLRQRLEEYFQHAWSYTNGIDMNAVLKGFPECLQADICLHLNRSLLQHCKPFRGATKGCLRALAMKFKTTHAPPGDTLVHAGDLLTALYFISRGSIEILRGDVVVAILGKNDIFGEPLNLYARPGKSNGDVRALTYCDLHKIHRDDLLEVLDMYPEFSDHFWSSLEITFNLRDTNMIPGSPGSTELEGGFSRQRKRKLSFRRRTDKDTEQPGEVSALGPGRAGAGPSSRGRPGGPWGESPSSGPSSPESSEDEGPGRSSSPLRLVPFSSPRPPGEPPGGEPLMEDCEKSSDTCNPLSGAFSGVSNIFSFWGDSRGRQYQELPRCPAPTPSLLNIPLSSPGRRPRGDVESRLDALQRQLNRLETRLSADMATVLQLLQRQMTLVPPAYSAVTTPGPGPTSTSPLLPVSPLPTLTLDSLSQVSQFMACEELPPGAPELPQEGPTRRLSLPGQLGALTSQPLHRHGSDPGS

| Structure (SMILES) | hERG current change (%, negative = inhibition) at 1uM |
| --- | --- |
| COc1ccc(/C=N/Nc2cc(N3CCCC3)nc(N3CCCC3)n2)cc1 | 6.91% |
| O=[N+]([O-])c1ccc(-n2ccnc2)cc1 | 14.2% |
| COc1cccc(C(C(=O)NC2CCCC2)N(Cc2ccc(C)cc2)C(=O)c2ccco2)c1OC (stereo not shown) | 11% |
| CC(=O)C[C@@H](O)CC(=O)[C@@H]1OC(=O)CC/C=C\Cc2ccccc21 | 10.3% |
| Cc1nc(SCC(=O)Nc2nccs2)c(C#N)c(C)c1C | 11.2% |
| CCc1ccc(NC(=O)CC2C(=O)N(c3ccc(C)cc3)C(=O)N2C2CC2)cc1 (stereo not shown) | -1.08% |
| CCN(c1ccc(C(=O)CN2C(=O)NC3(CCOc4ccccc43)C2=O)cc1)S(C)(=O)=O (stereo not shown) | 5.77% |
| Oc1ccccc1CNCCCNCc1ccccc1O | 4.74% |
| O=C(Cc1ccccc1[N+](=O)[O-])NCCC1=CCCCC1 | 11% |
| COc1cc(C2CC(=O)NC(SCC(=O)Nc3ccccc3C)=C2C#N)ccc1O (stereo not shown) | 10.2% |
| Cc1cccc(NC(=O)c2cnccn2)c1 | 13.5% |
| CCN(CC)c1ccc(S(=O)(=O)N2CCOCC2)cc1NC(=O)CSc1nncn1C | 10.5% |
| CC(=O)c1c(C(C)=O)c(C)n(C(c2ccccc2)c2ccccc2)c1C | -4.36% |
| COc1cccc2cc(C(=O)Nc3cccc(C)n3)c(=O)oc12 | 11.2% |
| CCOC(=O)c1c(C)[nH]c(C)c1S(=O)(=O)NCc1ccc(OCC)cc1 | 9.47% |
| O=C(CN(C(=O)CCC(=O)Nc1ccccn1)c1ccc(F)cc1)NCc1ccc(F)cc1 | 9.28% |
| Cc1ccc(C)c(S(=O)(=O)N2CCN(C(=O)CCNS(=O)(=O)c3ccc(C)c(C)c3)CC2)c1 | 17.7% |
| CCOC(=O)C1CCN(Cc2cc(=O)oc3c(C)c(C)ccc23)CC1 | 17.4% |
| COc1cccc(NC(=O)CN(C)C(=O)CN2C(=O)NC3(CCCC3)C2=O)c1 | 1.6% |
| O=C(CN1C(=O)C2C3C=CC(C3)C2C1=O)NCc1ccco1 (stereo not shown) | -0.656% |
| Cc1ccc(OCC(=O)O/N=C(\N)c2ccncc2)c(C)c1 | 2.19% |
| Cc1c(NC2(c3nnnn3-c3ccc(Br)cc3)CCCCC2)c(=O)n(-c2ccccc2)n1C | 3.85% |

| Structure (SMILES) | hERG current change (%, negative = inhibition) at 1uM |
| --- | --- |
| CCC(=O)Nc1c(-c2ccc(C)cc2)nc2ccc(C)cn12 | 9.83% |
| Cc1ccc(CN2CCC(Oc3ccc(C(=O)NCc4ccccn4)cc3)CC2)o1 | 11.8% |
| COCCn1c(SCC#N)nnc1-c1ccc2c(c1)OCO2 | -7.21% |
| O=C(/C=C/c1cccs1)NC1CCCC1 | 14.1% |
| COc1ccc(OCCSc2nnc(C)n2-c2ccccc2)cc1 | -12.7% |
| COCCn1c(C)cc(C(=O)COC(=O)c2ccc(N3CCCC3=O)cc2)c1C | 1.56% |
| Cn1c(SCC(=O)Nc2ccccc2)nnc1-c1ccc2nonc2c1 | 2.01% |
| Cc1ccc(CNC(=O)C2CCCN(S(=O)(=O)c3cccnc3)C2)cc1 (stereo not shown) | 6.82% |
| O=C(NCCC1=CCCCC1)C1CCC(CNc2c(N3CCCC3)c(=O)c2=O)CC1 (stereo not shown) | 19.6% |
| CCN(CC)S(=O)(=O)c1ccc(OC(C)C)c(NC(=O)c2c3c(nc4ccccc24)CCN(Cc2ccccc2)C3)c1 | 1.53% |
| COc1ccc(C2C(C(=O)N3CCC4(CC3)OCCO4)c3cc(OC)c(OC)cc3C(=O)N2C)cc1 (stereo not shown) | 12.6% |
| Cn1nc(C(F)(F)F)c(C(=O)Nc2ccc(F)cc2F)c1Oc1cccc(Cl)c1 | 0.0317% |
| Cc1ccc(-n2c(SCC(=O)N3CCOCC3)nc(O)c(Cc3ccccc3)c2=O)cc1 | 11.3% |
| O=C([O-])Cc1ccccc1Nc1c(Cl)cccc1Cl.[Na+] | 14.1% |
| CCOc1cccc2sc(N(CCCN(C)C)C(=O)c3ccc(S(=O)(=O)N(C)CC4CCCO4)cc3)nc12.Cl (stereo not shown) | -30% |
| Cc1nc2ccc(C(=O)N3CCN(Cc4ccccc4)CC3)cc2[nH]1 | 25.2% |
| CN(CC(=O)NC1CC1)S(=O)(=O)c1ccc(Br)cc1 | 14.4% |
| S=C(NC1CCCC1)N1CCN(c2ccccn2)CC1 | 13.2% |
| COCC(=O)NC1CC2CCC(C1)N2C(=S)Nc1ccccc1C(=O)OC (stereo not shown) | 2.01% |
| COC(=O)CCC(=O)Nc1ccc2oc3c(c2c1)CCCC3 | 18.3% |
| COc1ccc(OC)c(N/C(C)=C/C(=O)c2ccncc2)c1 | -3.52% |
